Data from the supplement of paper PMC8728848.
Some of the results follow.

Assays:
Test in all cases: glycan array binding signal (z-score within array); higher = stronger binding
Conditions in all cases: glycan notation: IUPAC condensed, linker removed
[1] = biological target: Fuc(a1-2)[Gal(a1-3)]Gal(b1-3)GlcNAc(b1-6)GalNAc
Method in brief: (§1)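 Glycan array binding is given as a within-array Z-score, which can be read as non-binding when negative. The arrays, 3228 of them, came from the Consortium for Functional Glycomics database and were retained only where the protein sequence was available. Z-scores were averaged across arrays of the same protein sequence at different concentrations or buffers and across linkers.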

[2] = biological target: Fuc(a1-2)[Gal(a1-3)]Gal(b1-4)Glc
Method in brief: as §1

[3] = biological target: Fuc(a1-2)[Gal(a1-3)]Gal(b1-4)GlcNAc
Method in brief: as §1

[4] = biological target: Fuc(a1-2)[Gal(a1-3)]Gal(b1-4)GlcNAc(b1-2)Man
Method in brief: as §1

[5] = biological target: Fuc(a1-2)[Gal(a1-3)]Gal(b1-4)GlcNAc(b1-2)Man(a1-3)[Fuc(a1-2)[Gal(a1-3)]Gal(b1-4)GlcNAc(b1-2)Man(a1-6)]Man(b1-4)GlcNAc(b1-4)GlcNAc
Method in brief: as §1

[6] = biological target: Fuc(a1-2)[Gal(a1-3)]Gal(b1-4)GlcNAc(b1-2)Man(a1-3)[Fuc(a1-2)[Gal(a1-3)]Gal(b1-4)GlcNAc(b1-2)Man(a1-6)]Man(b1-4)GlcNAc(b1-4)[Fuc(a1-6)]GlcNAc
Method in brief: as §1

[7] = biological target: Fuc(a1-2)[Gal(a1-3)]Gal(b1-4)GlcNAc(b1-3)GalNAc
Method in brief: as §1

[8] = biological target: Fuc(a1-2)[Gal(a1-3)]Gal(b1-4)GlcNAc(b1-3)[Fuc(a1-2)[Gal(a1-3)]Gal(b1-4)GlcNAc(b1-6)]GalNAc
Method in brief: as §1

[9] = biological target: Fuc(a1-2)[Gal(a1-3)]Gal(b1-4)GlcNAc(b1-6)GalNAc
Method in brief: as §1

[10] = biological target: Fuc(a1-2)[Gal(a1-3)]Gal(b1-4)[Fuc(a1-3)]Glc
Method in brief: as §1

[11] = biological target: Fuc(a1-2)[Gal(a1-3)]Gal(b1-4)[Fuc(a1-3)]GlcNAc
Method in brief: as §1

[12] = biological target: Fuc(a1-2)[Gal(a1-3)]Gal(b1-4)[Fuc(a1-3)]GlcNAc(b1-3)GalNAc
Method in brief: as §1

[13] = biological target: Fuc(a1-2)[Gal(a1-4)]Gal(b1-4)GlcNAc
Method in brief: as §1

[14] = biological target: Fuc(a1-2)[GalNAc(a1-3)]Gal
Method in brief: as §1

[15] = biological target: Fuc(a1-2)[GalNAc(a1-3)]Gal(b1-3)GalNAc(a1-3)[Fuc(a1-2)]Gal(b1-4)GlcNAc
Method in brief: as §1

[16] = biological target: Fuc(a1-2)[GalNAc(a1-3)]Gal(b1-3)GalNAc(b1-3)Gal(a1-4)Gal(b1-4)Glc
Method in brief: as §1

[17] = biological target: Fuc(a1-2)[GalNAc(a1-3)]Gal(b1-3)GlcNAc
Method in brief: as §1

[18] = biological target: Fuc(a1-2)[GalNAc(a1-3)]Gal(b1-3)GlcNAc(b1-2)Man(a1-3)[Fuc(a1-2)[GalNAc(a1-3)]Gal(b1-3)GlcNAc(b1-2)Man(a1-6)]Man(b1-4)GlcNAc(b1-4)GlcNAc
Method in brief: as §1

[19] = biological target: Fuc(a1-2)[GalNAc(a1-3)]Gal(b1-3)GlcNAc(b1-2)Man(a1-3)[Fuc(a1-2)[GalNAc(a1-3)]Gal(b1-3)GlcNAc(b1-2)Man(a1-6)]Man(b1-4)GlcNAc(b1-4)[Fuc(a1-6)]GlcNAc
Method in brief: as §1

[20] = biological target: Fuc(a1-2)[GalNAc(a1-3)]Gal(b1-3)GlcNAc(b1-3)GalNAc
Method in brief: as §1

[21] = biological target: Fuc(a1-2)[GalNAc(a1-3)]Gal(b1-3)GlcNAc(b1-6)GalNAc
Method in brief: as §1

[22] = biological target: Fuc(a1-2)[GalNAc(a1-3)]Gal(b1-4)Glc
Method in brief: as §1

[23] = biological target: Fuc(a1-2)[GalNAc(a1-3)]Gal(b1-4)GlcNAc
Method in brief: as §1

[24] = biological target: Fuc(a1-2)[GalNAc(a1-3)]Gal(b1-4)GlcNAc(b1-2)Man
Method in brief: as §1

[25] = biological target: Fuc(a1-2)[GalNAc(a1-3)]Gal(b1-4)GlcNAc(b1-2)Man(a1-3)[Fuc(a1-2)[GalNAc(a1-3)]Gal(b1-4)GlcNAc(b1-2)Man(a1-6)]Man(b1-4)GlcNAc(b1-4)GlcNAc
Method in brief: as §1

[26] = biological target: Fuc(a1-2)[GalNAc(a1-3)]Gal(b1-4)GlcNAc(b1-2)Man(a1-3)[Fuc(a1-2)[GalNAc(a1-3)]Gal(b1-4)GlcNAc(b1-2)Man(a1-6)]Man(b1-4)GlcNAc(b1-4)[Fuc(a1-6)]GlcNAc
Method in brief: as §1

[27] = biological target: Fuc(a1-2)[GalNAc(a1-3)]Gal(b1-4)GlcNAc(b1-2)Man(a1-3)[GalNAc(a1-3)[Fuc(a1-2)]Gal(b1-4)GlcNAc(b1-2)Man(a1-6)]Man(b1-4)GlcNAc(b1-4)GlcNAc
Method in brief: as §1

[28] = biological target: Fuc(a1-2)[GalNAc(a1-3)]Gal(b1-4)GlcNAc(b1-3)Gal(b1-4)GlcNAc
Method in brief: as §1

[29] = biological target: Fuc(a1-2)[GalNAc(a1-3)]Gal(b1-4)GlcNAc(b1-3)Gal(b1-4)GlcNAc(b1-3)Gal(b1-4)GlcNAc
Method in brief: as §1

[30] = biological target: Fuc(a1-2)[GalNAc(a1-3)]Gal(b1-4)GlcNAc(b1-3)GalNAc
Method in brief: as §1

[31] = biological target: Fuc(a1-2)[GalNAc(a1-3)]Gal(b1-4)GlcNAc(b1-3)[Fuc(a1-2)[GalNAc(a1-3)]Gal(b1-4)GlcNAc(b1-6)]GalNAc
Method in brief: as §1

[32] = biological target: Fuc(a1-2)[GalNAc(a1-3)]Gal(b1-4)GlcNAc(b1-6)GalNAc
Method in brief: as §1

[33] = biological target: Fuc(a1-2)[GalNAc(a1-3)]Gal(b1-4)[Fuc(a1-3)]GlcNAc
Method in brief: as §1

[34] = biological target: Fuc(a1-2)[GalNAc(a1-3)]Gal(b1-4)[Fuc(a1-3)]GlcNAc(b1-3)GalNAc
Method in brief: as §1

[35] = biological target: Fuc(a1-2)[GalNAc(a1-4)]Gal(b1-4)GlcNAc
Method in brief: as §1

[36] = biological target: Fuc(a1-2)[GalNAc(b1-3)]Gal
Method in brief: as §1

[37] = biological target: Fuc(a1-3)GlcNAc
Method in brief: as §1

[38] = biological target: Fuc(a1-3)[Gal(b1-4)]Glc6S
Method in brief: as §1

[39] = biological target: Fuc(a1-3)[Gal(b1-4)]GlcNAc
Method in brief: as §1

[40] = biological target: Fuc(a1-3)[Gal(b1-4)]GlcNAc(b1-2)Man
Method in brief: as §1

[41] = biological target: Fuc(a1-3)[Gal(b1-4)]GlcNAc(b1-2)Man(a1-3)[Fuc(a1-3)[Gal(b1-4)]GlcNAc(b1-2)Man(a1-6)]Man(b1-4)GlcNAc(b1-4)GlcNAc
Method in brief: as §1

[42] = biological target: Fuc(a1-3)[Gal(b1-4)]GlcNAc(b1-2)Man(a1-3)[Fuc(a1-3)[Gal(b1-4)]GlcNAc(b1-2)Man(a1-6)]Man(b1-4)GlcNAc(b1-4)[Fuc(a1-6)]GlcNAc
Method in brief: as §1

[43] = biological target: Fuc(a1-3)[Gal(b1-4)]GlcNAc(b1-2)Man(a1-6)[Gal(b1-4)GlcNAc(b1-2)Man(a1-3)]Man(b1-4)GlcNAc(b1-4)GlcNAc
Method in brief: as §1

[44] = biological target: Fuc(a1-3)[Gal(b1-4)]GlcNAc(b1-3)Gal(b1-3)[Fuc(a1-4)]GlcNAc
Method in brief: as §1

[45] = biological target: Fuc(a1-3)[Gal(b1-4)]GlcNAc(b1-3)Gal(b1-4)[Fuc(a1-3)]GlcNAc
Method in brief: as §1

[46] = biological target: Fuc(a1-3)[Gal(b1-4)]GlcNAc(b1-3)Gal(b1-4)[Fuc(a1-3)]GlcNAc(b1-3)Gal(b1-4)[Fuc(a1-3)]GlcNAc
Method in brief: as §1

[47] = biological target: Fuc(a1-3)[Gal(b1-4)]GlcNAc(b1-3)GalNAc
Method in brief: as §1

[48] = biological target: Fuc(a1-3)[Gal(b1-4)]GlcNAc(b1-4)Gal(b1-4)[Fuc(a1-3)]GlcNAc
Method in brief: as §1

[49] = biological target: Fuc(a1-3)[Gal(b1-4)]GlcNAc(b1-4)Gal(b1-4)[Fuc(a1-3)]GlcNAc(b1-4)Gal(b1-4)[Fuc(a1-3)]GlcNAc
Method in brief: as §1

[50] = biological target: Fuc(a1-3)[Gal(b1-4)]GlcNAc(b1-6)GalNAc
Method in brief: as §1

[51] = biological target: Fuc(a1-3)[Gal(b1-4)]GlcNAc(b1-6)[Gal(b1-3)GlcNAc(b1-3)]Gal(b1-4)Glc
Method in brief: as §1

[52] = biological target: Fuc(a1-3)[Gal(b1-4)]GlcNAc6S
Method in brief: as §1

[53] = biological target: Fuc(a1-3)[Gal3S(b1-4)]Glc
Method in brief: as §1

[54] = biological target: Fuc(a1-3)[Gal3S(b1-4)]Glc6S
Method in brief: as §1

[55] = biological target: Fuc(a1-3)[Gal3S(b1-4)]GlcNAc
Method in brief: as §1

[56] = biological target: Fuc(a1-3)[Gal3S(b1-4)]GlcNAc6S
Method in brief: as §1

[57] = biological target: Fuc(a1-3)[GalNAc(b1-4)]GlcNAc
Method in brief: as §1

[58] = biological target: Fuc(a1-3)[GalNAc(b1-4)]GlcNAc6S
Method in brief: as §1

[59] = biological target: Fuc(a1-3)[Neu5Ac(a2-3)]Gal(b1-4)GlcNAc(b1-3)GalNAc
Method in brief: as §1

[60] = biological target: Fuc(a1-4)GlcNAc
Method in brief: as §1

B1: HPAIIITrx (Helix pomatia), Q1KM18 (protein)
chain: MLFVTIISLGLLAIVHGQCALKTIAFSAAIDREQTFDANQVVIYDIVITNHGNAYDNSTGLFTAPVDGMYSFQLNLLTIKEKEGWLELVHNGQLKVSVYAKQDSTYDSSSNSVIIKMKEGDRVNVRAHKKSGLFGRDDELYNTFSGHFLSGL
[1]
  glycan array binding signal (z-score): -0.083
[2]
  glycan array binding signal (z-score): -0.198
[3]
  glycan array binding signal (z-score): -0.421
[4]
  glycan array binding signal (z-score): -0.228
[5]
  glycan array binding signal (z-score): -0.224
[6]
  glycan array binding signal (z-score): -0.121
[7]
  glycan array binding signal (z-score): -0.333
[8]
  glycan array binding signal (z-score): -0.093
[9]
  glycan array binding signal (z-score): -0.362
[10]
  glycan array binding signal (z-score): -0.413
[11]
  glycan array binding signal (z-score): -0.173
[12]
  glycan array binding signal (z-score): 0.401
[13]
  glycan array binding signal (z-score): -0.326
[14]
  glycan array binding signal (z-score): 2.1
[15]
  glycan array binding signal (z-score): 4.37
[16]
  glycan array binding signal (z-score): 3.47
[17]
  glycan array binding signal (z-score): 1.38
[18]
  glycan array binding signal (z-score): 1.46
[19]
  glycan array binding signal (z-score): 1.28
[20]
  glycan array binding signal (z-score): 0.992
[21]
  glycan array binding signal (z-score): 1.35
[22]
  glycan array binding signal (z-score): 2.02
[23]
  glycan array binding signal (z-score): 2.1
[24]
  glycan array binding signal (z-score): 2.83
[25]
  glycan array binding signal (z-score): 6.33
[26]
  glycan array binding signal (z-score): 0.882
[27]
  glycan array binding signal (z-score): 0.191
[28]
  glycan array binding signal (z-score): 2.44
[29]
  glycan array binding signal (z-score): 2.94
[30]
  glycan array binding signal (z-score): 1.41
[31]
  glycan array binding signal (z-score): 3.2
[32]
  glycan array binding signal (z-score): 1.74
[33]
  glycan array binding signal (z-score): 2.27
[34]
  glycan array binding signal (z-score): -0.046
[35]
  glycan array binding signal (z-score): 3.52
[36]
  glycan array binding signal (z-score): -0.233
[37]
  glycan array binding signal (z-score): -0.277
[38]
  glycan array binding signal (z-score): 0.185
[39]
  glycan array binding signal (z-score): -0.236
[40]
  glycan array binding signal (z-score): -0.237
[41]
  glycan array binding signal (z-score): -0.171
[42]
  glycan array binding signal (z-score): -0.284
[43]
  glycan array binding signal (z-score): -0.33
[44]
  glycan array binding signal (z-score): -0.089
[45]
  glycan array binding signal (z-score): -0.242
[46]
  glycan array binding signal (z-score): -0.438
[47]
  glycan array binding signal (z-score): -0.117
[48]
  glycan array binding signal (z-score): 1.6
[49]
  glycan array binding signal (z-score): -0.564
[50]
  glycan array binding signal (z-score): -0.143
[51]
  glycan array binding signal (z-score): -0.43
[52]
  glycan array binding signal (z-score): 0.249
[53]
  glycan array binding signal (z-score): -0.164
[54]
  glycan array binding signal (z-score): -0.08
[55]
  glycan array binding signal (z-score): -0.366
[56]
  glycan array binding signal (z-score): 0.608
[57]
  glycan array binding signal (z-score): -0.229
[58]
  glycan array binding signal (z-score): -0.297
[59]
  glycan array binding signal (z-score): 2.21
[60]
  glycan array binding signal (z-score): -0.334
